# Measurements taken from article PMC4242493.
# Some of the results follow. The list includes weakly bound sequences.
# Target: MaxL homodimer (UniProt P61244)
# Test: universal protein-binding microarray (PBM)
# Details: PBS-based mixture, 10 nM His-tagged protein dimer, 2% milk, 200 ng/uL BSA, 50 ng/uL salmon testes DNA, 0.02% TX-100; detection with Alexa 488 anti-His …; high values mean tight binding; most listed sequences are background and not binding sites; double strand, one strand shown
# Sequence of UniProt P61244 (P61244 whole entry): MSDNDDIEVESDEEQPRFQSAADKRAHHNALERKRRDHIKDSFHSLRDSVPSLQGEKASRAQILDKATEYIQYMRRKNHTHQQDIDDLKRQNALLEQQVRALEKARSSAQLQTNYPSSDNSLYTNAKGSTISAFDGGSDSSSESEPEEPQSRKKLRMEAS
row,Sequence,binding signal (normalized occupancy)
1,CAAGATTC,0.0813
2,CATACGGG,0.0812
3,TGAATTCA,0.0793
4,AATAACCT,0.0832
5,ATGTACCC,0.0868
6,CTTGCATA,0.0777
7,GGCGGTTA,0.0716
8,AGACGCCA,0.0714
9,GTAGCCAA,0.0754
10,TGCCCGAA,0.0729
11,CCGCATAA,0.0821
12,AGATTTAA,0.0716
13,AGCGAGGC,0.0726
14,CGCTGATC,0.0724
15,AGGTCCAT,0.0756
16,CCGCATCG,0.0662
17,CTAGTGAA,0.068
18,CCCCGCAC,0.0833
19,ACTAGGCT,0.0695
20,GTCTCCGA,0.0689
21,CCCCCGGC,0.0701
22,GTAAGAAC,0.0735

row,Sequence,binding signal (normalized occupancy)
1,CCCGCAGG,0.0702
2,ATCCCCAT,0.088
3,AGTTGCAG,0.0758
4,CGACCCGA,0.0692
5,CAAGAGCA,0.076
6,GCTCCCAC,0.075
7,AAAGAGCC,0.0704
8,AAGAAATT,0.068
9,AATCCGGT,0.0698
10,CATTTGCA,0.0841
11,ACTGCGTG,0.0884
12,AAGGGAGA,0.0736
13,CGTCTGAC,0.0727
14,CCATCGGA,0.0686
15,AGTTTAAG,0.0693
16,GGCGACTA,0.071
17,CATTGAGC,0.0699
18,AATCGAGC,0.0727
19,AGATCTGG,0.0786
20,ACCGGCCG,0.065
21,ATCGACAG,0.0749
22,AGGGAACG,0.0845

row,Sequence,binding signal (normalized occupancy)
1,GCCGCAGA,0.0731
2,ATTCCGGC,0.0696
3,ATCCTACC,0.0757
4,GTAGACAC,0.0787
5,GCTCGAAA,0.0672
6,GACAGTAC,0.0777
7,AGCCCACT,0.0727
8,CCACGCTC,0.0965
9,ACTTGTTA,0.075
10,TATGTACA,0.0862
11,AAGACAAT,0.0793
12,AGGAAATA,0.0789
13,AGGAATGA,0.0735
14,ACAAGAAG,0.0783
15,AGTACACA,0.0858
16,CCCTGAGA,0.0713
17,AACGCGTC,0.0723
18,GGTAGCAC,0.0806
19,AGCCCCTA,0.0739
20,GCTATGCC,0.0712
21,AACTGATG,0.0749
22,GCTCGAAC,0.0717

row,Sequence,binding signal (normalized occupancy)
1,ACTACGCA,0.0759
2,CGTCCTAA,0.073
3,GCGGAACC,0.0647
4,AGCGCTCG,0.0681
5,AAGACCCC,0.0752
6,ACTCAATG,0.0859
7,ACTCTATA,0.0759
8,GCAATCGC,0.0715
9,GTCAAGTA,0.0747
10,CAATCAAA,0.075
11,ATAACCGC,0.0792
12,GAGTTGCA,0.0724
13,CGCGACCA,0.075
14,CGTTACAC,0.0819
15,AACTCTAA,0.0725
16,ATTGGCTG,0.0741
17,AGCCTCAT,0.0827
18,CAAACGTA,0.0729
19,ACTCAAAG,0.0726
20,ATAGTCCC,0.0796
21,CACAACGG,0.0717
22,GCCTATCC,0.0724

row,Sequence,binding signal (normalized occupancy)
1,GAAGTTAA,0.0758
2,GATGTCAA,0.081
3,CCCTCTTC,0.0755
4,GATCTAAA,0.0756
5,CTCGTATC,0.0763
6,ATTTCTCG,0.0768
7,CAACGGTC,0.0687
8,GGAGGACC,0.0705
9,AAAGTCTC,0.0789
10,GAAACTCA,0.0703
11,AAAAATGG,0.078
12,CGATTACG,0.08
13,TCATATGA,0.0914
14,AGGGCCGG,0.0676
15,CGGAGCGC,0.0673
16,GTCTTAAA,0.074
17,ACAATACA,0.0795
18,GAATCGCC,0.0695
19,ACCGGTCA,0.0718
20,CTGATTCC,0.0772
21,ACTTTGAC,0.0739
22,AACGTTAC,0.0772
